The whole screen tested about 190,000 compounds, of which about 520 (0.27%) were called active. Inconclusive results, whose numbers are uncertain, are shown with a selection of clear calls.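 Rule for the calls: active = GTP binding activity at least 20 points away from the 100% control level, either lower or higher; inconclusive = compound flagged as likely green fluorescent, judged across all proteins; inactive = the rest.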
The molecules below were run against Ras-related C3 botulinum toxin substrate 1 (Homo sapiens) (UniProt P63000) (assay: wildtype Rac1 GTP binding modulators, primary screen, biochemical, GST-Rac1 beads, flow cytometry, multiplex (AID 757)). Settings: fluorescent GTP binding, at 10 µM, actives lie on both sides, 0 = cold GTP competed, 100 = untreated.

Structure (SMILES)	GTP binding activity (% of control)
Cc1ccc(S(=O)(=O)Nc2cccc(-c3ccc4nnc(C)n4n3)c2)s1	inactive: 88%
CCC1CCc2c(n(C)c3ccccc3c2=O)O1 (stereo unspecified)	inactive: 98%
COc1cc(NC(=O)c2cc3ccccc3o2)c(OC)cc1Br	inconclusive: 109%
Cc1nn(Cc2cccc(C(=O)Nc3ccn(Cc4ccccc4)n3)c2)c(C)c1[N+](=O)[O-]	inconclusive: 97%
N#Cc1cc2c(=O)n3ccccc3nc2n(CCCN2CCOCC2)c1=O	inconclusive: 105%
Cc1cc(C)n(CC(=O)N/N=C/c2cc(Br)cc([N+](=O)[O-])c2O)n1	inconclusive: 85%
CCCCN1CN=C(Nc2nc3ccccc3o2)NC1	inconclusive: 103%
COc1ccc(CC(=O)Nc2ccc(C(=O)Nc3nccs3)cc2)cc1OC	inactive: 82%
Cc1cc(C(=O)OCC(=O)Nc2c(F)cccc2F)c(C)n1-c1ccccc1	inconclusive: 95%
CCn1cc(C(=O)N2CC(C)CC(C)C2)c(=O)c2cc(S(=O)(=O)N3CCOCC3)ccc21 (stereo unspecified)	inconclusive: 99%
CCN(CC)c1ccc(/C=C2/SC(=O)N(C(C)C)C2=O)o1	inconclusive: 110%
Fc1cccc(CSc2ccc3nnc(-c4cccnc4)n3n2)c1	inconclusive: 81%
CN(c1ccc(OCC(=O)NCc2cccnc2)cc1)S(=O)(=O)c1ccc(Cl)cc1	inactive: 100%
CCC(C)C(NC(=O)c1ccccc1NC(=O)c1ccco1)C(=O)O (stereo unspecified)	inactive: 101%
COc1cc2[nH]c(=O)n(CCC(=O)NCCC(C)C)c(=O)c2cc1OC	inactive: 107%
CCCOC(=O)NC1CCS(=O)(=O)C1 (stereo unspecified)	inconclusive: 28%
Cc1cccc2cc(C#N)c(NCCNC(=O)NC3CCCCC3)nc12	inconclusive: 94%
CC(C)=CC(=O)OCC(=O)Nc1cc(C)ccc1C	inconclusive: 100%
N#Cc1ccc(CSc2nnc3[nH]c(=O)cc(N)n23)cc1	inactive: 98%
C/C(CC(=O)Nc1cc(Cl)ccc1Cl)=N\NC(=O)c1ccccc1Br	inactive: 101%
O=C(Nc1ccccc1N1CCOCC1)c1cccs1	inconclusive: 105%
CCc1c(C)sc(NC(=O)c2cnn3cccnc23)c1C#N	inconclusive: 97%
COc1ccc(C(=O)Nc2ccc3c(c2)Cc2ccccc2-3)cc1	inconclusive: 103%
CC(=O)NC(Cc1cccc(F)c1)C(=O)NC1CCN(c2nnnn2-c2ccccc2)CC1 (stereo unspecified)	inactive: 97%

Structure (SMILES)	GTP binding activity (% of control)
CCOc1cc(C2Nc3ccccc3C(=O)N2c2ccccc2)ccc1O (stereo unspecified)	inconclusive: 110%
Cc1n[nH]c(=S)c2nn(-c3ccccc3F)c(C)c12	inconclusive: 108%
COc1ccc(N2CCC(CNC(=S)Nc3cccc(C)c3)C2)cc1 (stereo unspecified)	inconclusive: 104%
CCc1ccc2nc(N)sc2c1	inconclusive: 97%
COc1ccc(NC(=S)N2CCC(c3nc4ccccc4o3)CC2)c(OC)c1	inactive: 100%
O=C(CCCO)c1ccc2c(c1)OCCO2	inconclusive: 90%
O=C(Nc1ccc2c(c1)nc1n2CCSC1)c1ccco1	inconclusive: 93%
COc1cc(/C=N/Nc2ccc(S(N)(=O)=O)cc2)cc(OC)c1OC	active: 79%
NC(=S)N/N=C/c1ccccc1OCCSc1ccc(Cl)cc1	inactive: 103%
Cn1ncc(N=Cc2c(O)ccc3ccccc23)c1C(=O)Nc1cccc(Cl)c1	inconclusive: 105%
COc1cc(C(=O)OC2CCN(C)CC2)cc(OC)c1OC	inconclusive: 104%
Cc1ccc(CNC(=O)CSc2nc3n[nH]c(C)c3c(=N)n2-c2cccc(C)c2)cc1	inconclusive: 88%
Cc1ccccc1NC(=O)C1CC(=O)N(Cc2ccccc2)C1 (stereo unspecified)	inactive: 95%
Cc1ccc2cc(C#N)c(NCCNC(=O)C3CC3)nc2c1C	inconclusive: 93%
CC(C)(C)c1ccc(C(=O)CC(Sc2ccc(Cl)cc2)C(=O)O)cc1 (stereo unspecified)	inconclusive: 79%
CCOC(=O)CCCN1CC(O)=C(c2nc3ccccc3s2)C1=N	inactive: 102%
CN(NS(=O)(=O)c1ccc(Cl)cc1)c1ncc(C(F)(F)F)cc1Cl	inactive: 93%
CCOc1ccc(-c2cc(C(=O)OC)[nH]n2)cc1	inconclusive: 158%
Cc1nnc(-c2ccccc2)[nH]c1=O	inactive: 100%
COC(=O)C(C)Sc1ccc2nnc(-c3ccc(F)cc3)n2n1 (stereo unspecified)	inconclusive: 110%
COc1cccc(CN2CCNC(=O)C2CC(=O)NCCn2cccn2)c1OC (stereo unspecified)	inconclusive: 101%
COc1ccc(OCCSc2nnc(-c3ccc(OC)cc3)n2N)cc1	inactive: 100%
CCOC(=O)C1=C(NC(=O)c2ccc(Br)o2)Nc2ccccc2N=C1	inconclusive: 104%
Cc1ccc(-n2c(-c3ccco3)n[nH]c2=S)cc1	inconclusive: 83%

Structure (SMILES)	GTP binding activity (% of control)
Clc1ccc(Sc2ccc(/C=N/n3cnnc3)o2)cc1	inconclusive: 104%
O=S(=O)(c1ccc(F)cc1)N1CCCC(CO)C1 (stereo unspecified)	inconclusive: 109%
COc1ccc(-c2csc(NC(=O)Cc3cccc4ccccc34)c2C(=O)O)cc1	active: 70%
CCN(CC)S(=O)(=O)c1cnccc1N1CCN(c2cccc(Cl)c2)CC1	inactive: 103%
O=C(NC(=S)Nc1ccc(F)c([N+](=O)[O-])c1)c1ccccc1F	inconclusive: 93%
COC(=O)c1sc2ccccc2c1-n1cccc1C(=O)C(=O)Nc1ccccc1	inconclusive: 97%
CC1CCC2(CC1)NC(=O)N(Cc1nnc(-c3cccs3)o1)C2=O (stereo unspecified)	inactive: 94%
Cc1ccc(NC(=S)NN2CCN(C)CC2)c(C)c1	inconclusive: 106%
CC(C)Cc1nc2oc3c(Cl)ncnc3c2c2c1CCC2	inactive: 101%
CC(=O)Nc1ccc(S(=O)(=O)n2nc(-c3ccc(C)cc3)nc2N)cc1	inconclusive: 105%
CCOc1ccc(NC(=O)/C=C/c2ccc(OC)cc2)c([N+](=O)[O-])c1	inconclusive: 98%
CCOC(=O)C1(C)NC(c2ccco2)C2C(=O)N(CC)C(=O)C21 (stereo unspecified)	inactive: 99%
O=C(Nc1ccc(N2CCN(C(=O)c3cccs3)CC2)cc1)c1cccnc1	inactive: 99%
Cc1ccc(C(=O)N2CCN(c3ncccn3)CC2)o1	inconclusive: 103%
Cc1ccc(S(=O)(=O)c2cc3c(=O)n4ccccc4nc3n(Cc3ccco3)c2=N)cc1C	inactive: 109%
O=C(NCCCN1CCOCC1)c1ccccc1	inconclusive: 106%
Cc1cccc(-n2ccnc2SCC(=O)Nc2cc(C)on2)c1	inconclusive: 107%
CC(=O)Nc1nc(C)c(-c2csc(Nc3ccccn3)n2)s1	inconclusive: 95%
Cc1cccc(C)c1NC(=S)NC(C)CCc1ccccc1 (stereo unspecified)	inactive: 101%
S=C(N=Nc1ccccc1)NNc1ccccc1	inactive: 101%
O=C(NNC(=O)C1CCCN(S(=O)(=O)c2ccc3ccccc3c2)C1)C1CC1 (stereo unspecified)	inactive: 99%
Cc1cc(C)cc(N(CC(=O)NCCSc2ccccn2)S(=O)(=O)c2ccccc2)c1	inconclusive: 100%
CCOC(=O)N1CCC2(CC1)C(C#N)=C(N)OC1=C2C(=O)CC(C)C1 (stereo unspecified)	inconclusive: 100%
CCOc1ccccc1CNCc1ccc(F)cc1	inactive: 100%

Structure (SMILES)	GTP binding activity (% of control)
O=C(OCCN1CCCCC1)c1cc2ccccc2o1	active: 123% [activator]
O=C(CC(=O)c1ccccc1)Nc1ccc2c(c1)OCCO2	inconclusive: 109%
OC(COc1ccc2ccccc2c1)Cn1ccnc1 (stereo unspecified)	inactive: 98%
Cc1ccc(-c2ccnc3nc(-n4cccc4)nn23)o1	inactive: 97%
CC(=O)c1ccc(NC(=S)Nc2cccc(Cl)c2C)cc1	inconclusive: 101%
Cc1ccc(O)c(C(=O)c2cnn(C(=O)Cc3csc(C)n3)c2)c1	inactive: 93%
O=C(COc1ccccc1C(=O)N/N=C\c1ccc(O)c(O)c1)N/N=C/c1ccc(O)c(O)c1	inconclusive: 80%
COc1ccc(NC(=O)C2CCCN2S(=O)(=O)c2ccc3c(c2)CCC(=O)N3)cc1 (stereo unspecified)	inconclusive: 102%
COCc1c(Br)c(C)nc(OCC(=O)N/N=C/c2cc(C)n(-c3ccc([N+](=O)[O-])cc3)c2C)c1C#N	inactive: 102%
c1cncc(-c2nnc(C3CCCCC3)o2)c1	inconclusive: 106%
COc1ccc(CCn2c(SCCN3CCCCC3)nc3ccccc3c2=O)cc1OC	inactive: 97%
CCOC(=O)C(C)Sc1nc(=O)n2cc(C)ccc2n1 (stereo unspecified)	inconclusive: 95%
Cc1cccc(-c2ncc(CN3CCN(CCC(C)C)C(CCO)C3)cn2)c1 (stereo unspecified)	inactive: 99%
COc1ccc(CCn2c(C(C)C)nc3c(c(=O)c4ccccc4n3C)c2=O)cc1	inactive: 91%
COc1ccc(-c2cc(=O)c3c(OC)c(OC)c(OC)c(OC)c3o2)cc1OC	inconclusive: 93%
CN=c1scc(-c2ccccc2F)n1/N=C(\C)c1cccnc1	inactive: 100%
CCCCCCn1cnc2c(c1=O)c1nc3ccccc3nc1n2/N=C/c1ccco1	inconclusive: 94%
O=C(COC(=O)c1ccccc1C(=O)c1ccc(Cl)cc1)NCC1CCCO1 (stereo unspecified)	inconclusive: 90%
O=C(CSCc1c(Cl)cccc1Cl)Nc1ccccc1C(=O)N1CCOCC1	inconclusive: 106%
S=C(NCc1ccc(Cl)cc1Cl)NC1CCCCC1	inactive: 103%
O=C(NCc1ccccn1)c1cc2cc(Br)ccc2oc1=O	inconclusive: 105%
COc1ccc(C2N=C(c3ccccc3)C(C)(C)N2O)cc1OC (stereo unspecified)	inactive: 95%
O=C(N/N=C1\CCSC1)c1cc(Cl)ccc1O	inconclusive: 83%
COc1ccc(-c2cnnc(N/N=C/c3ccc(OC)c(OC)c3)n2)cc1	inconclusive: 111%
